About 64,000 (15%) of roughly 420,000 compounds were called active. This list was built around the results that the source calls inconclusive (neither active nor inactive); the mix of calls is not that of the screen. Calls come from the whole dose curve; as a rule, active = well fitted inhibition curve with a large enough effect; inconclusive = small, poorly fitted or top-dose-only effect; inactive = flat fitted curve, though single readings scatter. No potency is given beside an inconclusive call; the fits are too rough.
assay: qHTS for Inhibitors of human tyrosyl-DNA phosphodiesterase 1 (TDP1): qHTS in cells in absence of CPT; conditions: DT40 Tdp1-/- hTDP1 cells, no CPT, ATP luminescence, 48 h; activity change, negative = growth inhibition: at 46.2 µM (top of the series) unless noted; note: nearly all actives have a fitted effect of over 55% in size
How it was run: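 No-CPT arm: Tdp1-/-;hTDP1 DT40 cells (400/well) plus compounds, incubated ≥48 hr at 37 °C. Readout CellTiter-Glo luminescence.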
% is set by controls: 0 for no effect and ±100 for the full control effect; potency is the fitted concentration of half-maximal effect; tags give direction and shape of the fitted curve.

Q: With `Cc1ccccc1OCC(=O)NCC(=O)OCc1ccc(Br)cc1` as the compound, how does the “activity change, negative = growth inhibition” value read?
A: Its value is inactive: -2.18%.

Q: For `CCc1ccc(S(=O)(=O)c2c(C(=O)c3ccccc3)cnc3ccc(CC)cc23)cc1`, which Potency is on record?
A: The Potency was active: 14.6 µM.

Q: For `Cc1nonc1NC(=O)CSc1nc2cc(Cl)ccc2c2c1CCCC2`, which Potency is on record?
A: The Potency was inconclusive [inhibitor, partial curve, poor fit].

Q: With `Cc1ccc(N=C2NC(=O)/C(=C/c3cccn3C)S2)cc1C` as the compound, how does the Potency read?
A: Its Potency is active: 9.2 µM.

Q: Which “activity change, negative = growth inhibition” value does the source give for `Cc1ccc(Cn2ccc(NC(=O)c3nn(C)cc3[N+](=O)[O-])n2)cc1` here?
A: The value was inactive: -23%.

Q: With `COc1ccc2[nH]cc(CCNC(=O)CCC3CCCCC3)c2c1` as the compound, how does the Potency read?
A: The Potency was inconclusive [inhibitor, single point].

Q: With `c1ccc(Cc2nnc3sc(-c4cccnc4)nn23)cc1` as the compound, how does the “activity change, negative = growth inhibition” value read?
A: The value was inactive: -19.3%.

Q: With `Cc1ccccc1NC(=O)c1ccc(Cl)c(S(=O)(=O)N2CCCCCC2)c1` as the compound, how does the Potency read?
A: Its Potency is active: 16.4 µM.

Q: With `O=C(Nc1cc(S(=O)(=O)Nc2ccccc2Cl)ccc1O)c1cc2c(s1)CCCC2` as the compound, how does the “activity change, negative = growth inhibition” value read?
A: The value was inactive: -24.7%.

Q: Which Potency does the source give for `CCc1ccc(-c2cc(C)no2)cc1S(=O)(=O)N1CCN(c2ccccc2OC)CC1` here?
A: The Potency was inconclusive [inhibitor, single point].

Q: With `Cc1ccc(-c2noc(CN(C)C(=O)c3ccoc3C)n2)cc1` as the compound, how does the Potency read?
A: The Potency was inconclusive [inhibitor, single point].

Q: Which Potency does the source give for `Cc1ccc(S(=O)(=O)N2CCOCC2)cc1NC(=O)COC(=O)CCc1c[nH]c2ccccc12` here?
A: The Potency was inconclusive [inhibitor, partial curve].

Q: Which Potency does the source give for `CN(C)S(=O)(=O)c1cccc(NC(=O)c2ccccc2SCC(=O)N2CCCC2)c1` here?
A: The Potency was inconclusive [inhibitor, single point].

Q: With `Cc1ccc(F)c(NC(=O)c2c(-c3ccccc3)noc2C)c1` as the compound, how does the Potency read?
A: Its Potency is inconclusive [inhibitor, single point].

Q: With `COc1cc(CNCCCN2CCOCC2)ccc1OCC(=O)Nc1cccc(C(F)(F)F)c1` as the compound, how does the Potency read?
A: The Potency was inconclusive [inhibitor, single point].

Q: For `O=C(Nc1cc(Br)ccc1O)c1cnn2c(C(F)F)cc(C3CC3)nc12`, which Potency is on record?
A: The Potency was active: 16.4 µM.

Q: For `CCCN1C2CCCC1CC(NC(=O)c1cccc(Cl)c1)C2` (centres undefined), which Potency is on record?
A: Its Potency is inconclusive [inhibitor, single point].

Q: With `Cc1cccc(-c2cnc(C(O)c3ccc4ccccc4c3)[nH]2)c1` (centres undefined) as the compound, how does the Potency read?
A: Its Potency is inconclusive [inhibitor, single point].

Q: Which “activity change, negative = growth inhibition” value does the source give for `COC(=O)c1c(O)cc(C(C)(C)C)n(-c2ccc(F)cc2)c1=O` here?
A: The value was inactive: -0.5%.

Q: With `CCOC(=O)COc1c(Cl)cc(/C=C2\N=C(C)OC2=O)cc1OC` as the compound, how does the Potency read?
A: The Potency was inconclusive [inhibitor, single point].

Q: With `O=C(NCCC(=O)N(CCc1ccccc1)Cc1ccccc1)c1ccccc1Cl` as the compound, how does the Potency read?
A: The Potency was active: 23.1 µM.

Q: Which Potency does the source give for `CCC1CCCCN1C(=O)Cn1c(=O)cc(C(F)(F)F)c2c(C)nn(C)c21` (centres undefined) here?
A: Its Potency is inconclusive [inhibitor, single point].

Q: Which activity change, negative = growth inhibition does the source give for `CC(C)c1ccc(C(=O)NC(=S)Nc2ccc3[nH]c(=O)[nH]c3c2)cc1` here?
A: Its activity change, negative = growth inhibition is inconclusive: -31.6% [inhibitor].

Q: With `Cc1cccnc1CN1CCN(Cc2nc(Cc3cccc(F)c3)no2)CC1` as the compound, how does the “activity change, negative = growth inhibition” value read?
A: The value was inactive: 3.98%.

Q: Which “activity change, negative = growth inhibition” value does the source give for `COc1ccc(OC)c(NC(=O)Cc2c(C(=O)O)n(C)c3ccc(C)cc23)c1` here?
A: Its value is inactive: -3.88%.

Q: Which Potency does the source give for `CN1OC[C@@H]2CN[C@H](c3cccc(-c4ccc(C#N)cc4)c3)C[C@@H]21` here?
A: Its Potency is inconclusive [inhibitor, single point].

Q: Which Potency does the source give for `COc1ccc2nc(-c3ccccc3)[nH]c2c1` here?
A: The Potency was inconclusive [inhibitor, single point].

Q: For `COc1ccc(Cl)cc1NS(=O)(=O)c1cccc(C(=O)NCC(c2ccco2)N2CCCC2)c1` (centres undefined), which Potency is on record?
A: The Potency was inconclusive [inhibitor, single point].

Q: Which Potency does the source give for `CC(OC(=O)CCNS(=O)(=O)c1ccc(Cl)cc1)C(=O)N(C)Cc1ccccc1` (centres undefined) here?
A: Its Potency is inconclusive [inhibitor, single point].

Q: With `C#CCOCCOCCOCCNc1nc(N2CCN(C(=O)CCCCCCCCCCNC(=O)[C@@H](CCSC)n3cc(CCO)nn3)CC2)nc(N2CCN(C(=O)CCCCCCCCCCNC(=O)[C@@H]([C@H](C)O)n3cc(C)nn3)CC2)n1` as the compound, how does the Potency read?
A: Its Potency is active: 9.2 µM.

Q: With `COC(=O)N/N=C/c1cc(C)n(-c2ccc(F)cc2)c1C` as the compound, how does the Potency read?
A: Its Potency is inconclusive [inhibitor, single point].

Q: With `O=C1c2[nH]nc(-c3ccccc3O)c2C(c2ccc(F)cc2)N1CCO` (centres undefined) as the compound, how does the Potency read?
A: The Potency was inconclusive [inhibitor, single point].

Q: With `COC(=O)c1cnn(-c2ccc(C(=O)Nc3cc(OC)c(OC)c(OC)c3)cc2)c1N` as the compound, how does the Potency read?
A: The Potency was inconclusive [inhibitor, partial curve].

Q: For `O=[N+]([O-])c1ccc(N2CCN(C(=S)NC3CCCCC3)CC2)cc1`, which Potency is on record?
A: The Potency was active: 9.2 µM.

Q: Which Potency does the source give for `CCOC(=O)c1cc(-c2ccc(OC)cc2)n(CCC(=O)Nc2nc3ccc(OCC)cc3s2)c1C` here?
A: The Potency was active: 9.2 µM.

Q: With `COc1cc(-c2nnc(-c3ccccc3)o2)cc(OC)c1OC` as the compound, how does the Potency read?
A: The Potency was active: 11.6 µM.

Q: With `COc1ccc(-c2nc(SCC(=O)N3CCCCC3C)n[nH]2)cc1` (centres undefined) as the compound, how does the Potency read?
A: Its Potency is inconclusive [inhibitor, single point].

Q: Which Potency does the source give for `CCOC(=O)[C@@H]1[C@H]2COc3ccccc3[C@@H]2N2C(=O)N(c3ccc(Br)cc3)C(=O)[C@]12C` here?
A: The Potency was inconclusive [inhibitor, single point].

Q: For `Cc1cc(C=O)c(O)cc1O`, which “activity change, negative = growth inhibition” value is on record?
A: The value was inactive: -14.6%.

Q: With `CCCNC(=O)C1(C)CCN(C(=O)c2ccc3snnc3c2)C1` (centres undefined) as the compound, how does the “activity change, negative = growth inhibition” value read?
A: The value was inactive: -5.82%.

Q: With `CCc1cccc2c(C(=O)C(NC(C)CC)c3ccccc3)c[nH]c12` (centres undefined) as the compound, how does the Potency read?
A: The Potency was active: 23.1 µM.

Q: Which “activity change, negative = growth inhibition” value does the source give for `COc1cc2c(N3CCOCC3)cc(O)c(CC(=O)Nc3ccccc3)c2cc1OC` here?
A: The value was inactive: -9.37%.

Q: With `CCOC(=O)c1c(C)sc(-c2c(-c3ccc(OC)c(F)c3)[nH]c3[nH]c(=O)[nH]c(=O)c23)c1O` as the compound, how does the Potency read?
A: Its Potency is inconclusive [inhibitor, single point].

Q: Which Potency does the source give for `O=C(COC(=O)c1ccc(F)c(S(=O)(=O)N2CCCCC2)c1)NCc1ccc(F)cc1` here?
A: Its Potency is inconclusive [inhibitor, partial curve].

From PubChem BioAssay AID686978 (National Center for Advancing Translational Sciences (NCATS), 2013)
